Data: article PMC4336329 (PLoS ONE, 2015)
In all, about 310,000 compounds went through this assay and about 14,000 (4.5%) showed an effect of 50% or more. Effects have a minus sign here. The list shows a part of the results.

target: human ether-à-go-go-related gene (hERG) potassium channel (human, UniProt Q12809); assay: primary screen, population patch clamp on CHO cells stably expressing hERG
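Further: peak tail current of the secondary pulse compared with the same well before compound.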

Sequence of human ether-à-go-go-related gene (hERG) potassium channel (Q12809 whole entry, looked up): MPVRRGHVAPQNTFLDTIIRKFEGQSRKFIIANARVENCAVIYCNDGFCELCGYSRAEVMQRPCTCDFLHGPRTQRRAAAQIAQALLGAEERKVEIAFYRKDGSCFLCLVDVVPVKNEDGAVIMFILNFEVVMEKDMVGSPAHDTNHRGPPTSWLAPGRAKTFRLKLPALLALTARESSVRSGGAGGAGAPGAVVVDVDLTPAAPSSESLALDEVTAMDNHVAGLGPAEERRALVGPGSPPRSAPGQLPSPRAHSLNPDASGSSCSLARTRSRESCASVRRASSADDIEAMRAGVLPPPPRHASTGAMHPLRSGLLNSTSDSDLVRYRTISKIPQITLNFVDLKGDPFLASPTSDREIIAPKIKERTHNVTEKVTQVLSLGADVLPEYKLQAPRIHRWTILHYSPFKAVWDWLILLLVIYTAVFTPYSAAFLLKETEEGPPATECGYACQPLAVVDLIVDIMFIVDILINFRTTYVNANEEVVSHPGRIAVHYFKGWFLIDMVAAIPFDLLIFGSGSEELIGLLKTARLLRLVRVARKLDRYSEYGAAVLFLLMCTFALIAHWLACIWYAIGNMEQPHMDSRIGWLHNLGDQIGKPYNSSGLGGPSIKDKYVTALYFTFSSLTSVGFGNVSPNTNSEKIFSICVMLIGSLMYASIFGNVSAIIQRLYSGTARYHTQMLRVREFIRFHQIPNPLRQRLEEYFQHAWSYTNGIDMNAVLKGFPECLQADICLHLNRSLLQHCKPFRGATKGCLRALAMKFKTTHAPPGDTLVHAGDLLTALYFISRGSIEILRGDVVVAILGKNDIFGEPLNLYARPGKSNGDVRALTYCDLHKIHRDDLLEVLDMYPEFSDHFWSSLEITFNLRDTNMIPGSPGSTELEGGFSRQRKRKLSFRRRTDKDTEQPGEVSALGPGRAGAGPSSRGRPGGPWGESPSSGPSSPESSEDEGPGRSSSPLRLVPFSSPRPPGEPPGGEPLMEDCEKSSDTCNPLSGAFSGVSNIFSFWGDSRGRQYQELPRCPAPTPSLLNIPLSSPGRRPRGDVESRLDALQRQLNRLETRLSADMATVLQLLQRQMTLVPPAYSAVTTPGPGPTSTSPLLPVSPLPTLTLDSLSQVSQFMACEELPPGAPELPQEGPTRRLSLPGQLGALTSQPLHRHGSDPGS

With CNC(=O)CSc1nc2cc(S(=O)(=O)Nc3ccc(OC)cc3)ccc2o1 as the compound, how does the “hERG current change (%, negative = inhibition) at 10uM” value read?
The value was -8.2%.

For O=C(Nc1ccc2c(c1)OCCO2)C1CCN(C(=O)c2ccc(Cl)cc2)CC1, which “hERG current change (%, negative = inhibition) at 10uM” value is on record?
Its value is -12.5%.

For O=C(CCc1nc2ccccc2c(=O)[nH]1)Nc1ccc(N2CCCCC2)cc1, which “hERG current change (%, negative = inhibition) at 10uM” value is on record?
Its value is 2.46%.

How did the “hERG current change (%, negative = inhibition) at 10uM” value turn out when O=C(C1CC1)N1CCc2cc(Br)cc(S(=O)(=O)NCCN3CCOCC3)c21 was run?
Its value is -4.77%.

How did the “hERG current change (%, negative = inhibition) at 10uM” value turn out when COc1ccccc1C(=O)Nc1ccc2c(c1)nc(CCNC(C)=O)n2C was run?
Its value is 9.58%.

How did the “hERG current change (%, negative = inhibition) at 10uM” value turn out when CCc1ccccc1NC(=O)CN1CCC(NC(=O)COC)CC1.Cl was run?
The value was 13.4%.

CNc1nc(-c2ccc([N+](=O)[O-])cc2)cs1 was tested. Which “hERG current change (%, negative = inhibition) at 10uM” value did it give?
Its value is 2.64%.

For C[C@H](NC(=O)c1ccc2ccccc2c1)C(=O)N1CCC2(CC1)NCCc1[nH]cnc12, which “hERG current change (%, negative = inhibition) at 10uM” value is on record?
Its value is 5.25%.

Which “hERG current change (%, negative = inhibition) at 10uM” value does the source give for COc1ccc(/C=N/NC(=O)c2ccn[nH]2)cc1COc1ccc([N+](=O)[O-])c(C)c1 here?
Its value is 2.26%.

For CCc1c(-c2ccccc2)nc(N)c(C#N)c1-c1cccs1, which “hERG current change (%, negative = inhibition) at 10uM” value is on record?
Its value is 2.85%.

How did the “hERG current change (%, negative = inhibition) at 10uM” value turn out when COc1cc(/C=C/C(=O)OCC(=O)Nc2sc3c(c2C#N)CCC(C)C3)ccc1OCC#N (centres unmarked) was run?
The value was 12.1%.

Which “hERG current change (%, negative = inhibition) at 10uM” value does the source give for Cc1cc(=O)[nH]c(SCC(=O)Nc2ccccc2C#N)c1C#N here?
Its value is 3.53%.

For CCN(CC)CCN(Cc1cc2cc3c(cc2[nH]c1=O)OCCO3)C(=O)NC1CCCCC1, which “hERG current change (%, negative = inhibition) at 10uM” value is on record?
The value was -28.7%.

For COc1ccc(CNC(=O)C2(CC(=O)NC(C)(C)C)CCCC2)cc1, which “hERG current change (%, negative = inhibition) at 10uM” value is on record?
Its value is 5.71%.

With COc1cc(CC(=O)OCC(=O)Nc2ccc(Cl)c(S(=O)(=O)N(C)C)c2)cc(OC)c1OC as the compound, how does the “hERG current change (%, negative = inhibition) at 10uM” value read?
The value was -28.6%.

With Cc1ccc(C(=O)c2c[nH]c(C(=O)NCCCN3CCOCC3)c2)cc1 as the compound, how does the “hERG current change (%, negative = inhibition) at 10uM” value read?
The value was -30.5%.

How did the “hERG current change (%, negative = inhibition) at 10uM” value turn out when N#C/C(=C\c1ccc(-c2ccc(C(=O)O)cc2)o1)C(=O)Nc1ccc(F)cc1 was run?
Its value is 25.6%.

Which “hERG current change (%, negative = inhibition) at 10uM” value does the source give for CC1(C)[C@@H](O)CC[C@]2(C)C3C(O)C=C4[C@H]5C[C@@](C)(CO)CC[C@]5(C)CC[C@]4(C)[C@]3(C)CC[C@@H]12 (some centres unmarked) here?
The value was 17.7%.

For CN1CCc2c(sc(NC(=O)c3ccc([N+](=O)[O-])o3)c2C(N)=O)C1.Cl, which “hERG current change (%, negative = inhibition) at 10uM” value is on record?
Its value is 4.98%.

O=C(O)c1ccc(CNc2ccccc2C(=O)O)cc1 was tested. Which “hERG current change (%, negative = inhibition) at 10uM” value did it give?
The value was 16%.

With CCc1ccc(CN(C)CCc2ccccn2)cc1 as the compound, how does the “hERG current change (%, negative = inhibition) at 10uM” value read?
Its value is -62.6%.

COC(=O)C1=C(c2ccc(C(C)=O)cc2)C[C@@H]2CC[C@H]1N2C(=O)NCC1CC1 was tested. Which “hERG current change (%, negative = inhibition) at 10uM” value did it give?
The value was -6.52%.

With COc1cccc(N2CCN(C(=S)NCc3ccco3)CC2)c1 as the compound, how does the “hERG current change (%, negative = inhibition) at 10uM” value read?
The value was -12.5%.

For CCOC(=O)N1CCN(CCC(=O)Nc2ccccc2OC)CC1, which “hERG current change (%, negative = inhibition) at 10uM” value is on record?
The value was -0.821%.

For CCN(CC)CCNC(=O)COc1ccc(Cl)cc1Cl, which “hERG current change (%, negative = inhibition) at 10uM” value is on record?
The value was -41.8%.

With O=C(Nc1ccccc1[N+](=O)[O-])c1nc[nH]c1C(=O)NCCO as the compound, how does the “hERG current change (%, negative = inhibition) at 10uM” value read?
The value was 4.71%.

CC1=CC(C)(C)NC(=S)N1c1ccc(C)cc1 was tested. Which “hERG current change (%, negative = inhibition) at 10uM” value did it give?
The value was 18.8%.

For O=c1c2c(nc3cc(-c4ccccc4Cl)[nH]n13)CCS2, which “hERG current change (%, negative = inhibition) at 10uM” value is on record?
The value was 15.9%.

Cc1cccc(NC(=O)CCS(=O)(=O)c2ccc3c(c2)NC(=O)CS3)n1 was tested. Which “hERG current change (%, negative = inhibition) at 10uM” value did it give?
The value was 12.1%.

Which “hERG current change (%, negative = inhibition) at 10uM” value does the source give for Cl.Oc1ccc(Nc2ncnc3scc(-c4ccccc4)c23)cc1 here?
Its value is 0.696%.

Which “hERG current change (%, negative = inhibition) at 10uM” value does the source give for COc1ccc2[nH]c(=O)c(-c3nnn(-c4ccc(Cl)nc4)n3)cc2c1 here?
Its value is 11.9%.

CCOC(=O)CNC(=S)N(CCCN1CCCCC1)Cc1cccs1 was tested. Which “hERG current change (%, negative = inhibition) at 10uM” value did it give?
The value was -62.6%.

Which “hERG current change (%, negative = inhibition) at 10uM” value does the source give for CN(C)S(=O)(=O)c1cc(NC(=O)Cn2ccsc2=N)ccc1Cl.Cl here?
The value was -56.3%.

With CCOc1cc2c3c(c1)C1(C(=O)N3C(C)(C)CC2C)C(C#N)=C(N)N2C(=C1C#N)Nc1ccccc12 (centres unmarked) as the compound, how does the “hERG current change (%, negative = inhibition) at 10uM” value read?
Its value is 2.65%.

Cc1cc(C)c(S(=O)(=O)N2CCN(C(=O)CN3C(=O)NC4(CCCC4)C3=O)CC2)c(C)c1 was tested. Which “hERG current change (%, negative = inhibition) at 10uM” value did it give?
Its value is 7.42%.

With CCN(CC)c1ccc(C(=O)NNC(=O)CN2C(=O)NC3(CCCCC3)C2=O)cc1 as the compound, how does the “hERG current change (%, negative = inhibition) at 10uM” value read?
The value was -1.43%.

CCOCCCNC(=O)CCN1C(=O)c2ccccc2Sc2ncccc21 was tested. Which “hERG current change (%, negative = inhibition) at 10uM” value did it give?
The value was 26.2%.

How did the “hERG current change (%, negative = inhibition) at 10uM” value turn out when COc1ccc2nc(SCC(=O)NN)cc(C)c2c1 was run?
The value was -6.7%.

For CC(=O)Nc1cccc(OCC(=O)Nc2ccc(F)cc2)c1, which “hERG current change (%, negative = inhibition) at 10uM” value is on record?
Its value is -42.8%.

For CNC(=O)C(=O)NCC1OCCCN1S(=O)(=O)c1ccc(F)cc1C (centres unmarked), which “hERG current change (%, negative = inhibition) at 10uM” value is on record?
The value was 12%.

Which “hERG current change (%, negative = inhibition) at 10uM” value does the source give for O=[N+]([O-])c1cccc(-n2cc3ccc([N+](=O)[O-])cc3n2)c1 here?
Its value is 1.68%.

With CC(=O)COc1ccc2c(-c3ccccc3)cc(=O)oc2c1 as the compound, how does the “hERG current change (%, negative = inhibition) at 10uM” value read?
The value was -1.91%.

How did the “hERG current change (%, negative = inhibition) at 10uM” value turn out when O=C(NCCC1CCCC1)c1cccs1 was run?
Its value is -9.54%.

CC(C)CC(NC(N)=O)C(=O)NCCc1ccc(Cl)cc1 (centres unmarked) was tested. Which “hERG current change (%, negative = inhibition) at 10uM” value did it give?
The value was 27.5%.
